120 sequences from the supplement of paper PMC10126150 can be followed below.

The series concerns ATP. As to the kind of experiment: switch fluorescence ratio, 500 uM ATP over buffer (Cy3 cluster intensity, sum of 5 cycles each) (fold (ratio)); higher = stronger signal-on switching upon ATP binding; sequences stand for … in TCGTCGGCAGCGTCAGATGTGTATAAGAGACAGTTTTTTTTTTTTTTTTTTTTTTTTT…TC. To be noted: aptamer strand: ATP DNA aptamer (quencher-CACCTGGGGGAGTATTGCGGAGGAAGG + anchor), 100 nM annealed; ATP concentration: 500 uM; one replicate. The method, boiled down: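 Imaging in selection buffer was followed by imaging after 15 min with 500 uM ATP at 22 °C, for Cy3-labelled switching-strand clusters annealed to 100 nM quencher-labelled ATP aptamer on a modified Illumina MiSeq flow-cell. Five of these buffer/ATP cycles ran, separated by NaOH stripping and re-annealing. The fluorescence ratio per cluster is summed target-cycle over summed buffer-cycle Cy3 intensity, averaged per switch-domain sequence; clusters outside 100-1000 RFU were removed.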

Sequences with one replicate were seen in a single cluster, so their values are uncertain.
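Note: ATP exposure 15 min at 22 °C before imaging.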

As for TTTTGCTCCT, the switch fluorescence ratio stood at 1.02.

As to TGTTTCGAAG, the switch fluorescence ratio is 1.01.

As to GGTCGCTTGA, the switch fluorescence ratio is 0.962.

With AACTGTTATG, the switch fluorescence ratio is 1.02.

CTGTCCGGTC: the switch fluorescence ratio was determined as 1.02.

For ATTGGAGCTC, the switch fluorescence ratio is 0.991.

CCCCTAAACA: the switch fluorescence ratio worked out at 0.947.

As to GGTTGCCGAA, the switch fluorescence ratio worked out at 1.07.

On to TCTTAAGTTG, for which the switch fluorescence ratio came to 1.01.

As for GGTCGTGGG, the switch fluorescence ratio stood at 0.996.

ACGCTAAGAC: the switch fluorescence ratio turned out to be 2.

With GGAGGTGGT, the switch fluorescence ratio stood at 1.01.

Take GCTGTAGCAT: the switch fluorescence ratio is 1.05.

As for CCTATCTGCG, the switch fluorescence ratio was 0.996.

As for CGTTTTCTTT, the switch fluorescence ratio worked out at 1.01.

With TGAATTGCCC, the switch fluorescence ratio was 1.03.

Turning to GTGGATTAGT, the switch fluorescence ratio was 0.952.

As for GCTTGTAAAC, the switch fluorescence ratio is 0.983.

As for GCTACTAGTA, the switch fluorescence ratio was 0.977.

With TCTGGTGTGA, the switch fluorescence ratio was found to be 0.978.

On to ATAGCAAACA, for which the switch fluorescence ratio was 1.08.

On to TTTTTAGCAG, for which the switch fluorescence ratio turned out to be 1.03.

For ACGTTCCCTC, the switch fluorescence ratio was 1.11.

As for TCATCTTTGA, the switch fluorescence ratio turned out to be 1.02.

For the sequence AGAGGGTTTA, the switch fluorescence ratio was 1.01.

Regarding CGAGTTACAA, the switch fluorescence ratio turned out to be 1.05.

As to ATTTTAGCCA, the switch fluorescence ratio was found to be 0.966.

On to ATAGCTTGCA, for which the switch fluorescence ratio turned out to be 0.99.

Take TCCCGGGGGC: the switch fluorescence ratio stood at 1.06.

As for TCATGTGTCT, the switch fluorescence ratio came out at 0.993.

As to CTAACTATAA, the switch fluorescence ratio was 1.02.

Turning to GTTCATGGGA, the switch fluorescence ratio is 0.999.

For GCCTAGGGTA, the switch fluorescence ratio stood at 0.981.

Turning to CTGCGCCAAG, the switch fluorescence ratio is 1.22.

In the case of GGTAAGCAGC, the switch fluorescence ratio worked out at 0.998.

In the case of AAGCTTCATC, the switch fluorescence ratio amounted to 1.56.

For GGTATCGTG, the switch fluorescence ratio is 1.03.

Turning to TTATTAGAGT, the switch fluorescence ratio came to 0.95.

With ATTCTTCTCG, the switch fluorescence ratio turned out to be 1.02.

For ATGGGCATGA, the switch fluorescence ratio was determined as 1.01.

With CAATAATAGG, the switch fluorescence ratio is 1.02.

For the sequence CCGATCGATG, the switch fluorescence ratio is 1.6.

On to ACCTGGTTTA, for which the switch fluorescence ratio was found to be 1.03.

Turning to TCCTTTATTC, the switch fluorescence ratio was found to be 1.02.

Take GTACGTCCGA: the switch fluorescence ratio stood at 1.05.

For the sequence CGTACAGGAG, the switch fluorescence ratio is 1.

In the case of CAACGGAATT, the switch fluorescence ratio came to 1.09.

TCTCCGTTAT: the switch fluorescence ratio was determined as 1.72.

Consider ATTAGCCACT, for which the switch fluorescence ratio stood at 1.05.

For the sequence AGTGGCGTAG, the switch fluorescence ratio worked out at 0.999.

With GATCGGTATC, the switch fluorescence ratio amounted to 1.03.

Take TAGCGGTACT: the switch fluorescence ratio is 3.34.

In the case of TGAAGGGCAG, the switch fluorescence ratio stood at 0.997.

Regarding CAGTAAGGCA, the switch fluorescence ratio was 0.972.

As for AGCACTGGCC, the switch fluorescence ratio came to 1.04.

Consider GTAGTTTCGA, for which the switch fluorescence ratio came out at 1.03.

For the sequence CTGAAGAGGT, the switch fluorescence ratio was found to be 0.959.

Take CTCAAAACC: the switch fluorescence ratio was 1.09.

In the case of GCCGAAAACG, the switch fluorescence ratio was 0.969.

On to AAAACAGCTT, for which the switch fluorescence ratio turned out to be 0.997.

Take ACCACTACAG: the switch fluorescence ratio worked out at 1.17.

TGATAAACTA: the switch fluorescence ratio was 0.991.

In the case of GGTCGGGCGA, the switch fluorescence ratio turned out to be 0.822.

As for ATTATCGGGG, the switch fluorescence ratio came to 1.03.

Take GGTTCTCCG: the switch fluorescence ratio is 1.07.

CGGGAAACGG: the switch fluorescence ratio is 1.09.

On to TCTGTGGGGT, for which the switch fluorescence ratio came out at 0.961.

As for CGTTCAGGCC, the switch fluorescence ratio amounted to 1.02.

With GTCTAAAGTT, the switch fluorescence ratio was determined as 1.01.

Take CTACTATACA: the switch fluorescence ratio is 1.35.

As to ATACAGGACT, the switch fluorescence ratio came out at 1.08.

CATAGCTTTG: the switch fluorescence ratio was found to be 0.98.

As to TTATGGAGGT, the switch fluorescence ratio amounted to 0.948.

Take TGATTTCGTG: the switch fluorescence ratio was found to be 0.962.

On to TAGTGTGAGA, for which the switch fluorescence ratio was 1.02.

Consider ACTCTTTCGT, for which the switch fluorescence ratio worked out at 1.03.

For ACCAGACAGC, the switch fluorescence ratio amounted to 1.17.

Turning to GGAAACGAAA, the switch fluorescence ratio turned out to be 0.997.

GAGTTTGCCC: the switch fluorescence ratio was determined as 0.994.

As for GGGGCAAAGT, the switch fluorescence ratio was found to be 0.99.

As for TATCCTTTT, the switch fluorescence ratio came to 1.

Regarding TGTGAGCGC, the switch fluorescence ratio is 0.943.

On to GCCAAAAGTG, for which the switch fluorescence ratio amounted to 0.988.

As for CGGACGGAGC, the switch fluorescence ratio turned out to be 1.76.

For the sequence AAAGAGCTTC, the switch fluorescence ratio is 0.896.

Take GATACTGTAT: the switch fluorescence ratio worked out at 1.13.

On to ATTTGGGCAC, for which the switch fluorescence ratio came to 1.02.

For TTGTACTTCT, the switch fluorescence ratio came to 1.01.

In the case of AGATCACTGG, the switch fluorescence ratio was 0.99.

With ATGGATCCCA, the switch fluorescence ratio amounted to 0.989.

Consider GAATCCGATG, for which the switch fluorescence ratio is 1.05.

Take AAGGCCAGTT: the switch fluorescence ratio amounted to 1.

Take CCCGGTGCTT: the switch fluorescence ratio worked out at 2.07.

For the sequence GATTGTGCCT, the switch fluorescence ratio amounted to 0.997.

Consider GTGCCCGTCC, for which the switch fluorescence ratio was 1.

As for TCGAAATAAT, the switch fluorescence ratio worked out at 0.99.

In the case of GGGGAGACCA, the switch fluorescence ratio was 0.951.

For CGGGACTGAG, the switch fluorescence ratio was determined as 0.999.

Turning to GCGTATCTGT, the switch fluorescence ratio was 0.971.

On to AGTCCGAGG, for which the switch fluorescence ratio is 0.981.

As to AGTATTTC, the switch fluorescence ratio came out at 1.01.

On to TAGAATCGAG, for which the switch fluorescence ratio was 1.12.

As for GACAGTCTA, the switch fluorescence ratio was 0.999.

Regarding ATTTACGTCA, the switch fluorescence ratio came out at 1.19.

Take TCCAGCCAAT: the switch fluorescence ratio came out at 1.67.

GGCGCTCAGG: the switch fluorescence ratio worked out at 1.04.

In the case of CTGAGAGAG, the switch fluorescence ratio was 0.967.

Turning to GGATTAGACT, the switch fluorescence ratio was 0.998.

As for TTTTTTTGT, the switch fluorescence ratio was found to be 0.991.

ATCCCTTGCT: the switch fluorescence ratio amounted to 1.14.

On to GCGTGGTCAT, for which the switch fluorescence ratio came out at 0.96.

Regarding CAGTATCTGT, the switch fluorescence ratio is 0.993.

With AACCTTTATG, the switch fluorescence ratio came to 1.03.

For the sequence TCAGACTGCC, the switch fluorescence ratio amounted to 1.15.

Turning to GGGACGGCAT, the switch fluorescence ratio was determined as 1.04.

In the case of TGCGGAATTT, the switch fluorescence ratio turned out to be 1.04.

Regarding GTGCTAGGCT, the switch fluorescence ratio amounted to 0.986.

As to CGCCGGGTAC, the switch fluorescence ratio is 2.51.

For the sequence CACGATTAAT, the switch fluorescence ratio was determined as 1.06.

As for CACTGCTATC, the switch fluorescence ratio is 2.18.
